Values joined by “and” are separate entries in the source; they are usually repeats but may differ in a detail not shown here. Identical values can stand only once. Over roughly 13,000 compounds, “IFI” has its median near 4; the highest 2% begin near 17. This is one part of the list.
Experiment: GSK_TCMDC: Inhibition Frequency Index (IFI). The number of non-kinase HTS assays where a compound showed > 50 % inhibition, expressed as a percentage of the number of such assays in which the compound was tested (-0 is zero)
Type: functional

**Q.** Which IFI does the source give for O=C(/C=C/c1ccc(Cl)c(Cl)c1)NCCC1CCC(N2CCC(c3c[nH]c4ccc(O)cc34)CC2)CC1 (stereo not given) here?
**A.** Its IFI is 5.59%.

**Q.** With Cc1ccc(C(=O)Nc2ccnc(N(C)C3CCN(Cc4cccc(O)c4)CC3)c2)cn1 as the compound, how does the IFI read?
**A.** The IFI was 2.56%.

**Q.** For Cc1ccc2c(C3=CCN(CCCCC4(C)C(=O)Nc5c(F)cccc54)CC3)c(C)[nH]c2c1 (stereo not given), which IFI is on record?
**A.** The IFI was 2.9%.

**Q.** With O=C(C=Cc1ccc(-c2ccccc2)cc1)NC1CCC(CN2CCC(c3c[nH]c4ccccc34)CC2)CC1 (stereo not given) as the compound, how does the IFI read?
**A.** The IFI was 8.09% and 7.41%.

**Q.** For CC[C@H]1CN2CC[C@H]1C[C@H]2[C@H](O)c1cc(/C=C/c2ccccc2)nc2ccc(OC)cc12, which IFI is on record?
**A.** The IFI was 6.99%.

**Q.** With C=CC12CCN(CC1)C(C(O)c1ccnc3ccc(OC)cc13)C2 (stereo not given) as the compound, how does the IFI read?
**A.** The IFI was 0%.

**Q.** Which IFI does the source give for N#Cc1ccc(N(CC(=O)NCCc2ccccc2)CC2CC2)c2ccccc12 here?
**A.** The IFI was 9.09%.

**Q.** With CC[C@H]1CN2CC[C@@H]1C[C@H]2[C@H](O)c1ccnc2ccc(OC)cc12 as the compound, how does the IFI read?
**A.** The IFI was -0%.

**Q.** With Cc1ccccc1CNCC(O)c1cccc(C(F)(F)F)c1 (stereo not given) as the compound, how does the IFI read?
**A.** Its IFI is 1.55%.

**Q.** With O=C1c2ccccc2CCC1CCN1CC=C(c2c[nH]c3ccccc23)CC1 (stereo not given) as the compound, how does the IFI read?
**A.** The IFI was 2.92%.

**Q.** For Cc1[nH]c2cc(F)ccc2c1C1=CCN(CCCCC2(C)C(=O)Nc3c(F)cccc32)CC1 (stereo not given), which IFI is on record?
**A.** Its IFI is 1.45%.

**Q.** With COc1cccc(CC(C)NCC(O)c2cccc(Cl)c2)c1 (stereo not given) as the compound, how does the IFI read?
**A.** Its IFI is 1.44%.

**Q.** For CC[C@H]1CN2CC[C@@H]1C[C@H]2[C@H](O)c1cc(-c2ccccc2)nc2ccc(O)cc12, which IFI is on record?
**A.** Its IFI is 4.44%.

**Q.** With O=C1COc2ccccc2N1CCN1CCC(NCc2ccc(-c3cccs3)cc2)CC1 as the compound, how does the IFI read?
**A.** Its IFI is 10%.

**Q.** Which IFI does the source give for COc1cccc(CN2CCC(CCOC(c3ccccc3)c3ccc(Cl)cc3)CC2)c1O (stereo not given) here?
**A.** Its IFI is 5.47%.

**Q.** With COC(=O)/C=C/c1ccc(CC(C)NCC(O)c2cccc(Br)c2)cc1 (stereo not given) as the compound, how does the IFI read?
**A.** The IFI was 7.19%.

**Q.** Which IFI does the source give for O=C(Cc1cc(=O)oc2cc(O)ccc12)NC1CCC(CN2CCC(c3c[nH]c4ccccc34)CC2)CC1 (stereo not given) here?
**A.** Its IFI is 2.99%.

**Q.** With CN(c1cc(NC(=O)c2ccc(F)cc2)ccn1)C1CCN(Cc2cccc(C#N)c2)CC1 as the compound, how does the IFI read?
**A.** Its IFI is 4.88%.

**Q.** Which IFI does the source give for N=C(N)NC(=O)Nc1ccc([N+](=O)[O-])c(Cl)c1 here?
**A.** The IFI was -0%.

**Q.** Which IFI does the source give for CN1CC=C(C=Cc2c[nH]c3ccccc23)CC1 here?
**A.** Its IFI is 2.04%.

**Q.** For COC(=O)CN(C(=O)/C=C/c1ccc(Cl)c(Cl)c1)C1CCC(CN2CCC(c3c[nH]c4ccccc34)CC2)CC1 (stereo not given), which IFI is on record?
**A.** Its IFI is 4.51%.

**Q.** With CCCc1c(C(=O)NC2CCC(CN3CCC(c4c[nH]c5ccccc45)CC3)CC2)cnn1-c1ccc(Cl)cc1 (stereo not given) as the compound, how does the IFI read?
**A.** The IFI was 7.41%.

**Q.** For CCCCCc1cc(O)c2c(c1)OC(C)(C)CC2C1=CCN(Cc2ccccc2)CC1 (stereo not given), which IFI is on record?
**A.** Its IFI is 2.86%.

**Q.** For CC[C@H]1CN2CC[C@@H]1C[C@@H]2[C@@H](O)c1cc(-c2ccc(F)cc2)nc2ccc(OC)cc12, which IFI is on record?
**A.** Its IFI is 4.48%.

**Q.** With CC[C@H]1C[N+]2([O-])CC[C@@H]1C[C@H]2[C@H](O)c1cc(-c2ccccc2)nc2ccc(OC)cc12 as the compound, how does the IFI read?
**A.** The IFI was 2.21%.

**Q.** Which IFI does the source give for Cc1[nH]c2ccccc2c1C1=CCN(CCCCC23CCCc4cccc(c42)NC3=O)CC1 (stereo not given) here?
**A.** Its IFI is 3.55%.

**Q.** For O=C(/C=C/c1ccc(Cl)c(Cl)c1)N1CCC(CN2CCC(c3c[nH]c4ccc(O)cc34)CC2)CC1, which IFI is on record?
**A.** Its IFI is 12%.

**Q.** For COCCNCc1cccc(-c2cccc(CN(C(=O)Nc3ccccc3)C3CCN(Cc4ccccc4)CC3)c2)c1, which IFI is on record?
**A.** The IFI was 7.75%.

**Q.** With COc1nc(N)ncc1C(=O)NC1CN2CCC1CC2 (stereo not given) as the compound, how does the IFI read?
**A.** Its IFI is -0%.

**Q.** With COc1ccc(C=CC(=O)N2CCC(CN3CCC(c4c[nH]c5ccccc45)CC3)CC2)cc1OC as the compound, how does the IFI read?
**A.** Its IFI is 5.07%.

**Q.** Which IFI does the source give for CC(=O)C1(c2ccccc2)CCN(CCC(NC(=O)c2cc(C(F)(F)F)cc(C(F)(F)F)c2)c2ccc(Cl)c(Cl)c2)CC1 (stereo not given) here?
**A.** Its IFI is 1.45%.

**Q.** For CN(CC(=O)N1CCN(S(=O)(=O)c2cccc(Cl)c2)CC1CN1CCCC1)c1ccc(Cl)c(Cl)c1 (stereo not given), which IFI is on record?
**A.** The IFI was 6.67%.

**Q.** Which IFI does the source give for CCCCCC(C)C(C)c1cc(O)c2c(c1)OC(C)(C)c1cnccc1-2 (stereo not given) here?
**A.** Its IFI is 1.49%.

**Q.** Which IFI does the source give for Cc1[nH]c2c(C)cc(NS(C)(=O)=O)cc2c1C1CCN(CC2CCN(C(=O)/C=C/c3ccc(Cl)c(Cl)c3)CC2)CC1 here?
**A.** The IFI was 2.29%.

**Q.** With Cc1[nH]c2ccccc2c1C1CCN(CC2CCC(NC(=O)/C=C/c3ccc(Cl)c(Cl)c3)CC2)CC1 (stereo not given) as the compound, how does the IFI read?
**A.** Its IFI is 2.21%.

**Q.** For FC(F)(F)c1ccc(NC(=S)NC2CCC(CN3CCC(c4c[nH]c5ccccc45)CC3)CC2)cc1 (stereo not given), which IFI is on record?
**A.** Its IFI is 9.49% and 10.7%.

**Q.** With CC[C@H]1CN2CC[C@@H]1C[C@H]2[C@H](O)c1cc(N2CCC(N3CCCCC3)CC2)nc2ccc(OC)cc12 as the compound, how does the IFI read?
**A.** The IFI was 2.9%.

**Q.** Which IFI does the source give for C/C=C1\CN2CC[C@H]1C[C@H]2[C@H](O)c1ccnc2ccc(OC)cc12 here?
**A.** Its IFI is -0% and 0.74%.

**Q.** Which IFI does the source give for O=C(NC1CCN(CC2(c3ccc(Cl)cc3)CCC2)CC1)c1cscn1 here?
**A.** Its IFI is 4.17%.

**Q.** Which IFI does the source give for CC[C@H]1CN2CC[C@H]1C[C@H]2[C@H](O)c1ccnc2ccc(C#N)cc12 here?
**A.** Its IFI is -0%.

**Q.** For CCC(C)CN1CCC(N(C)c2cc(NC(=O)c3cccc(C)c3)ccn2)CC1 (stereo not given), which IFI is on record?
**A.** Its IFI is -0%.

**Q.** Which IFI does the source give for C[C@@H]1C[C@@H]([C@H](O)CC2CC(=O)NC(=O)C2)C(=O)[C@@H](C)C1 here?
**A.** Its IFI is 9.35%.

**Q.** Which IFI does the source give for O=C(NC1CCC(CN2CCC(c3c[nH]c4ccccc34)CC2)CC1)c1cc2ccccc2s1 (stereo not given) here?
**A.** The IFI was 7.04% and 4.9%.

**Q.** Which IFI does the source give for CC(Cc1ccc(OCc2ccccc2)cc1)NCC(O)c1cccc(Cl)c1 (stereo not given) here?
**A.** The IFI was 15.6%.

**Q.** For O=C(/C=C/c1ccc(Cl)c(Cl)c1)NC1CCC(CN2CCC(c3c[nH]c4ccc(O)cc34)CC2)CC1 (stereo not given), which IFI is on record?
**A.** The IFI was 9.38% and 10.8%.

**Q.** Which IFI does the source give for CNCCCCCCOc1ccc(CC(C)NCC(O)c2cccc(C(F)(F)F)c2)cc1 (stereo not given) here?
**A.** The IFI was 7.8%.

**Q.** For O=C(/C=C/C=C/c1ccccc1)NC1CCC(CN2CCC(c3c[nH]c4ccccc34)CC2)CC1 (stereo not given), which IFI is on record?
**A.** The IFI was 6.85%.

**Q.** For CCOC(C(=O)OCCN(C(C)C)C(C)C)(c1ccccc1)c1ccccc1, which IFI is on record?
**A.** Its IFI is 1.37%.

**Q.** With CC(Cc1ccc(OC2CCCCC2)cc1)NCC(O)c1cccc(Cl)c1 (stereo not given) as the compound, how does the IFI read?
**A.** Its IFI is 21.7%.

**Q.** Which IFI does the source give for COc1cccc(CCNC(C)Cc2ccc(OCCCCOc3ccccc3)cc2)c1 (stereo not given) here?
**A.** The IFI was 31%.

**Q.** For CC(Cc1ccc(NC(=O)[C@@H](C)NCCc2cccc(Cl)c2)cc1)NCCc1cccc(Cl)c1 (stereo not given in full), which IFI is on record?
**A.** The IFI was 12.4%.

**Q.** With CN(c1cc(NC(=O)c2ccc(F)cc2)ccn1)C1CCN(Cc2cccc(F)c2)CC1 as the compound, how does the IFI read?
**A.** Its IFI is -0%.

**Q.** With O=C(CSc1ccc(Cl)cc1)NC1CCC(CN2CCC(c3c[nH]c4ccccc34)CC2)CC1 (stereo not given) as the compound, how does the IFI read?
**A.** The IFI was 7.91%.

**Q.** Which IFI does the source give for CC(=O)C1(c2ccccc2)CCN(CCC2(c3ccc(Cl)c(Cl)c3)CN(C(=O)Nc3cc(F)cc(F)c3)CCO2)CC1 (stereo not given) here?
**A.** Its IFI is 7.59%.

**Q.** With CC[C@H]1CN2CC[C@@H]1C[C@H]2[C@H](O)c1cc(-c2cc(Cl)cc(Cl)c2)nc2ccc(OC)cc12 as the compound, how does the IFI read?
**A.** The IFI was 0.69%.

Source: ChEMBL document CHEMBL1157539, “Thousands of chemical starting points for antimalarial lead identification” (Nature, 2010)
